# Assay results taken from the BET-seq Pho4 binding data (Le et al. 2018).
# The list shows a part of the results. The energies were worked out here from pooled read counts, against the library average; single values are noisy.
# Molecular target: T1, Pho4 (S. cerevisiae) (UniProt P07270)
# T1 sequence: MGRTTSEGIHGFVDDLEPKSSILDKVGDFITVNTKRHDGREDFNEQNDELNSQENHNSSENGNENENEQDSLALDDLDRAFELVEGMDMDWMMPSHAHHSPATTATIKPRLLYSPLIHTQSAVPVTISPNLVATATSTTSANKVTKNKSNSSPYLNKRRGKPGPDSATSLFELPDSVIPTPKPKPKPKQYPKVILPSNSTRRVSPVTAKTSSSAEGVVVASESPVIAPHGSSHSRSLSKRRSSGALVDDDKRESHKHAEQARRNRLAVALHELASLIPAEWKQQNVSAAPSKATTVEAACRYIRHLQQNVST
# Assay: relative binding free energy (BET-seq); higher = weaker binding
# Conditions: reference: library average
row,Sequence,relative binding free energy [kcal/mol]
1,TGGGTCACGTGTATCA,0.12
2,AGGTGCACGTGTAAGA,-0.03
3,CGATGCACGTGAGTGG,0.18
4,CTATTCACGTGGAATG,0.35
5,GGGCTCACGTGAAAGT,0.5
6,TGCTGCACGTGGGGCG,-0.19
7,AAAGTCACGTGTGCGG,-0.01
8,TGATACACGTGTGTAT,-0.04
9,AGTCGCACGTGTTGAG,-0.04
10,TACTACACGTGGGGGA,0.07
11,CGTTTCACGTGGGGGC,0.22
12,TTCATCACGTGGATAG,0.15
13,GGGCTCACGTGGCATG,0.33
14,ATTGGCACGTGTGGGT,-0.03
15,ATATGCACGTGAAGTT,0.2
16,AGTGTCACGTGTGGTG,0.14
17,GTTTGCACGTGATTAT,0.17
18,ATTTACACGTGGTGGT,0.01
19,TGTGTCACGTGTTAGC,0.08
20,TTCGGCACGTGTCGTG,-0.05
21,GGTTTCACGTGAATCG,0.54
22,CGGTACACGTGGTGAG,0.03
23,AAAGCCACGTGAGGTT,0.2
24,TTTAGCACGTGTTGAT,-0.1
25,AGTATCACGTGCTTAG,0.1

row,Sequence,relative binding free energy [kcal/mol]
1,ATTAGCACGTGTAGCT,0.04
2,CTCTTCACGTGTTTGT,0.14
3,TCAAGCACGTGGGTAG,-0.18
4,TTCGGCACGTGAAGTG,0.18
5,TGTTTCACGTGCCGGC,0.28
6,TTTTACACGTGATAGA,0.1
7,TTAGTCACGTGTCAAT,0.08
8,GGAGTCACGTGGGTTT,0.06
9,TGCTTCACGTGTGGTA,0.2
10,GAGTGCACGTGGGTCA,-0.2
11,CGTGTCACGTGTTCAG,0.06
12,CGGTCCACGTGGAGGG,0.02
13,GGGTACACGTGATGAG,0.26
14,GGTTGCACGTGTCTTG,0.11
15,TGTGCCACGTGTTTCG,-0.06
16,TGCTTCACGTGTGAAT,0.39
17,GGGCGCACGTGAGGTT,0.05
18,GTGGTCACGTGCAGAG,0.01
19,TTGAGCACGTGTTGAG,-0.26
20,TTAGACACGTGTCATG,0.04
21,TTGCACACGTGGCTTT,0
22,GATAGCACGTGTAGGG,-0.03
23,GTTTTCACGTGGGACT,0.28
24,TTAGTCACGTGAGATT,0.31
25,CTGGTCACGTGGTGTG,-0.06

row,Sequence,relative binding free energy [kcal/mol]
1,AATTTCACGTGAGTAT,0.44
2,TGCAGCACGTGGGTCG,-0.29
3,TTGGTCACGTGCCATG,0.07
4,GTTTGCACGTGTAGAT,0.31
5,TGTTACACGTGCCTGG,0
6,TGTAGCACGTGAAGGT,0.16
7,ATTTTCACGTGCTTCG,0.23
8,CACGACACGTGGGGGG,-0.3
9,TGGGGCACGTGGATGC,-0.07
10,GTAAGCACGTGGGAGG,-0.03
11,AGGATCACGTGGCTTG,0.04
12,TATGGCACGTGAAAGA,0.21
13,GAAGGCACGTGCGTGG,-0.17
14,TCTTTCACGTGGGATT,0.31
15,ATAGGCACGTGGGAGG,-0.22
16,TTGTGCACGTGTTAGC,0.2
17,TGTATCACGTGGTGGC,0.17
18,GGTTGCACGTGGAAGC,-0.05
19,TTGAACACGTGCGTGG,0
20,AAGAGCACGTGGGTAT,-0.21
21,GTGATCACGTGATGAT,0.15
22,ATGTGCACGTGGGACA,-0.19
23,TCGGTCACGTGTGGTT,0.12
